The supplement of paper PMC8007513
Counter-ions that a name gives are not always drawn. ± gives the standard error. The campaign covered roughly 1,300 compounds. About 130 (10%) showed an effect of 50% or more. The entries are a selection whose mix differs from that of the whole data set.

Test system: Trichoderma virens ATCC 9645
Assay: growth yield (OD600) with compound + IPBC relative to untreated control; higher = less growth inhibition
Conditions: compound concentration: 100 uM, IPBC concentration: 200 ng/ml
Method in brief: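 Plates were read for OD600 at 40 h and 72 h after Trichoderma virens ATCC 9645 spores (15,000 spores ml^−1 in potato dextrose broth) were grown at 30 °C with library compounds at 100 μM final, with or without a biocide at 200 ng ml^−1. Growth is stated relative to the control with neither agent, as the mean of duplicate screens.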

## COc1ccc2c(c1)C(=O)N(CCc1ccc(S(=O)(=O)NC(=O)NC3CCCCC3)cc1)C(=O)C2(C)C [Gliquidone] + CCCCNC(=O)OCC#CI [3-iodo-2-propynyl butylcarbamate (IPBC)]
40 h
  growth yield: 115 ± 3%
72 h
  growth yield: 111 ± 2.5%

## NS(=O)(=O)Cc1noc2ccccc12 [Zonisamide] + CCCCNC(=O)OCC#CI [3-iodo-2-propynyl butylcarbamate (IPBC)]
40 h
  growth yield: 91.49 ± 0.64%
72 h
  growth yield: 92.7 ± 2.7%

## Cc1cn([C@H]2C[C@H](N=[N+]=[N-])[C@@H](CO)O2)c(=O)[nH]c1=O [Zidovudine, AZT] + CCCCNC(=O)OCC#CI [3-iodo-2-propynyl butylcarbamate (IPBC)]
40 h
  growth yield: 91.3 ± 6.5%
72 h
  growth yield: 96.4 ± 3.5%

## CC(C[N+](C)(C)C)OC(N)=O (stereo unspecified) [Bethanechol chloride] + CCCCNC(=O)OCC#CI [3-iodo-2-propynyl butylcarbamate (IPBC)]
40 h
  growth yield: 87 ± 3.2%
72 h
  growth yield: 90.2 ± 1.5%

## Cc1cc(C(C#N)c2ccc(Cl)cc2)c(Cl)cc1NC(=O)c1cc(I)cc(I)c1O (stereo unspecified) [Closantel] + CCCCNC(=O)OCC#CI [3-iodo-2-propynyl butylcarbamate (IPBC)]
40 h
  growth yield: 102 ± 2.7%
72 h
  growth yield: 101 ± 0.94%

## NCCc1cc[nH]n1 [Betazole hydrochloride] + CCCCNC(=O)OCC#CI [3-iodo-2-propynyl butylcarbamate (IPBC)]
40 h
  growth yield: 88.5 ± 1.8%
72 h
  growth yield: 91.03 ± 0.42%

## CCCNC(C)C(=O)Nc1c(C)csc1C(=O)OC (stereo unspecified) [Articaine hydrochloride] + CCCCNC(=O)OCC#CI [3-iodo-2-propynyl butylcarbamate (IPBC)]
40 h
  growth yield: 100 ± 14%
72 h
  growth yield: 99.1 ± 7.9%

## COc1cccc(N(C)C(=S)Oc2ccc3c(c2)CCCC3)n1 [Liranaftate] + CCCCNC(=O)OCC#CI [3-iodo-2-propynyl butylcarbamate (IPBC)]
40 h
  growth yield: 0%
72 h
  growth yield: 0%

## C[C@@H]1C[C@@H]([C@H](O)CC2CC(=O)NC(=O)C2)C(=O)[C@@H](C)C1 [Cycloheximide] + CCCCNC(=O)OCC#CI [3-iodo-2-propynyl butylcarbamate (IPBC)]
40 h
  growth yield: 34.3 ± 2.9%

## CC(C)Cn1cnc2c(N)nc3ccccc3c21 [Imiquimod] + CCCCNC(=O)OCC#CI [3-iodo-2-propynyl butylcarbamate (IPBC)]
40 h
  growth yield: 82.6%
72 h
  growth yield: 99.2 ± 14%

## NC(=O)N1c2ccccc2CC(=O)c2ccccc21 [Oxcarbazepine] + CCCCNC(=O)OCC#CI [3-iodo-2-propynyl butylcarbamate (IPBC)]
40 h
  growth yield: 83.4 ± 2.4%
72 h
  growth yield: 92.9 ± 1.9%

## CC1(C)O[C@@H]2[C@@H](CO[C@@]3(COS(N)(=O)=O)OC(C)(C)O[C@@H]23)O1 [Topiramate] + CCCCNC(=O)OCC#CI [3-iodo-2-propynyl butylcarbamate (IPBC)]
40 h
  growth yield: 89 ± 5.1%
72 h
  growth yield: 93.1 ± 5.9%

## CC[N+](CC)(CC(=O)Nc1c(C)cccc1C)Cc1ccccc1 [Denatonium benzoate] + CCCCNC(=O)OCC#CI [3-iodo-2-propynyl butylcarbamate (IPBC)]
40 h
  growth yield: 101.7 ± 0.64%
72 h
  growth yield: 106 ± 1.4%

## COc1cc(NS(=O)(=O)c2ccc(N)cc2)nc(OC)n1 [Sulfadimethoxine] + CCCCNC(=O)OCC#CI [3-iodo-2-propynyl butylcarbamate (IPBC)]
40 h
  growth yield: 116.3 ± 0.95%
72 h
  growth yield: 114 ± 1.6%

## O=c1[nH]oc2c1CCNC2 [THIP Hydrochloride] + CCCCNC(=O)OCC#CI [3-iodo-2-propynyl butylcarbamate (IPBC)]
40 h
  growth yield: 98.6 ± 7.5%
72 h
  growth yield: 96.9 ± 3.4%

## CN(C)c1cc(NC(=O)CNC(C)(C)C)c(O)c2c1C[C@H]1C[C@H]3[C@H](N(C)C)C(O)=C(C(N)=O)C(=O)[C@@]3(O)C(O)=C1C2=O [Tigecycline] + CCCCNC(=O)OCC#CI [3-iodo-2-propynyl butylcarbamate (IPBC)]
40 h
  growth yield: 80.7 ± 3.5%
72 h
  growth yield: 79 ± 2%

## CN(Cc1ccc(C(C)(C)C)cc1)Cc1cccc2ccccc12 [Butenafine Hydrochloride] + CCCCNC(=O)OCC#CI [3-iodo-2-propynyl butylcarbamate (IPBC)]
40 h
  growth yield: 4.13%
72 h
  growth yield: 2.73%

## CC(=O)CC(c1ccc([N+](=O)[O-])cc1)c1c(O)c2ccccc2oc1=O (stereo unspecified) [Acenocoumarol] + CCCCNC(=O)OCC#CI [3-iodo-2-propynyl butylcarbamate (IPBC)]
40 h
  growth yield: 76.6 ± 1.3%
72 h
  growth yield: 89.04 ± 0.32%

## CCCCCCCCNC(C)C(O)c1ccc(SC(C)C)cc1 (stereo unspecified) [Suloctidil] + CCCCNC(=O)OCC#CI [3-iodo-2-propynyl butylcarbamate (IPBC)]
40 h
  growth yield: 5.08 ± 0.32%
72 h
  growth yield: 33.1 ± 2.5%

## S=c1[nH]cnc2nc[nH]c12 [Mercaptopurine] + CCCCNC(=O)OCC#CI [3-iodo-2-propynyl butylcarbamate (IPBC)]
40 h
  growth yield: 78.785 ± 1e-14%
72 h
  growth yield: 87.47 ± 0.63%

## COc1ccc2c3c1O[C@H]1C[C@@H](O)C=C[C@@]31CCN(C)C2 [Galanthamine hydrobromide] + CCCCNC(=O)OCC#CI [3-iodo-2-propynyl butylcarbamate (IPBC)]
40 h
  growth yield: 88 ± 1.9%
72 h
  growth yield: 89.98 ± 0.21%

## Cc1nnc(SCC2=C(C(=O)O)N3C(=O)[C@@H](NC(=O)Cn4cnnn4)[C@H]3SC2)s1 [Cefazolin sodium salt] + CCCCNC(=O)OCC#CI [3-iodo-2-propynyl butylcarbamate (IPBC)]
40 h
  growth yield: 97.2%
72 h
  growth yield: 117 ± 18%

## NCC1(CC(=O)O)CCCCC1 [Gabapentin] + CCCCNC(=O)OCC#CI [3-iodo-2-propynyl butylcarbamate (IPBC)]
40 h
  growth yield: 94.5 ± 7.8%
72 h
  growth yield: 93 ± 2.6%

## Cc1cccc(C)c1NC(=O)CN1CCN(CCCC(c2ccc(F)cc2)c2ccc(F)cc2)CC1 [Lidoflazine] + CCCCNC(=O)OCC#CI [3-iodo-2-propynyl butylcarbamate (IPBC)]
40 h
  growth yield: 10.3 ± 1.1%
72 h
  growth yield: 78.6 ± 7.7%

## CC(=O)O[C@]1(C(C)=O)CC[C@H]2[C@@H]3C=C(C)C4=CC(=O)CC[C@]4(C)[C@H]3CC[C@@]21C [Megestrol acetate] + CCCCNC(=O)OCC#CI [3-iodo-2-propynyl butylcarbamate (IPBC)]
40 h
  growth yield: 95.9 ± 4.8%
72 h
  growth yield: 100 ± 2.7%

## Nc1nnc(-c2cccc(Cl)c2Cl)c(N)n1 [Lamotrigine] + CCCCNC(=O)OCC#CI [3-iodo-2-propynyl butylcarbamate (IPBC)]
40 h
  growth yield: 95.9 ± 3.5%
72 h
  growth yield: 99.95 ± 0.52%
